{"source": "the supplement of paper PMC10681739", "note": "± gives the standard deviation of the averaged measurements. Over roughly 4,100 sequences, “arbitrary fluorescence units” has its median near 780; the highest 2% begin near 22,000. The list shows a part of the results.", "data": [{"biological_target": "T1, ETS1 (UniProt P14921)", "T1 sequence": "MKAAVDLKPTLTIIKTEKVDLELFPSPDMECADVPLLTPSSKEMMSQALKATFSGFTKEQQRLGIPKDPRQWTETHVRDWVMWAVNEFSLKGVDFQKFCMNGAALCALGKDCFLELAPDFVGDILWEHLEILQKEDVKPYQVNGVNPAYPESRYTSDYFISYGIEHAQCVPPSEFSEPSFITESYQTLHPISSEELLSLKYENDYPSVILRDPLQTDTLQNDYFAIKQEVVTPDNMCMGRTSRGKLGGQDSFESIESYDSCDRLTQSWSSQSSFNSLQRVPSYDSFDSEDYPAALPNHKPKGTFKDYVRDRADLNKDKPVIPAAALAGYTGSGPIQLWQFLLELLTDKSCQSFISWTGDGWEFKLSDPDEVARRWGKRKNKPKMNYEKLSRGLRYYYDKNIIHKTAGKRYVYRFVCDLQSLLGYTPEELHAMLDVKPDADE", "experiment": "ETS1 binding intensity (PBM fluorescence), ETS1 alone (arbitrary fluorescence units); higher = stronger binding", "conditions": "ETS1 concentration 1 nM; RUNX1 concentration 0 nM", "in_short": "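Recombinant full-length human ETS1 was applied at 1 nM, without RUNX1, to double-stranded Agilent 4 × 180k arrays of 36-bp genomic probes carrying a mutated RUNX1 partner site, following standard PBM protocols. Detection used an anti-ETS1 antibody (Cell Signaling Technology 14069) and an Alexa488-conjugated secondary antibody, with scanning on a GenePix 4400A. Each sequence was printed as four replicate spots. Binding level is the spot fluorescence intensity, summarised across replicates and not normalised.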", "values": [{"sequence": "GTCGCTGGGGTTGCCTGAAACAGGAAATCCTTCTGC", "ETS1 binding intensity": 1990}, {"sequence": "CCAACGCTCCCGGCAGCGCGTTCCGGAGCCGGTCCT", "ETS1 binding intensity": "341 ± 9.4"}, {"sequence": "GATGAGGGCTTGCGCGCAAACAGCCCGGAAATGAGG", "ETS1 binding intensity": 1010}, {"sequence": "AGCTTTCCATCCGGGTCCCTGTCCGTGAGGTGCAGC", "ETS1 binding intensity": 1800}, {"sequence": "CGGGCCGGAATCACGATCCACCTCGCCGCGCTGGCT", "ETS1 binding intensity": 393}, {"sequence": "ACTTTGTCAGTGTAGTTTTCACATCCTGTCCTAGCT", "ETS1 binding intensity": 2870}, {"sequence": "GCCAGGCGCTCACAGGTTGGCAGGAAGAGCACTTAG", "ETS1 binding intensity": 527}, {"sequence": "AGCACGCCGGGAAATGGAGTCTCAGGTGGATTTTAA", "ETS1 binding intensity": 805}, {"sequence": "TCTTCCTCCTCGCTGTCGCGGCCGGACGGAGGGTGG", "ETS1 binding intensity": 846}, {"sequence": "AGGACCGGCTCCGGAACGCGCTGCCGGGAGCGTTGG", "ETS1 binding intensity": "290 ± 3.4"}, {"sequence": "CTCCCCCGTACATAGCCCTGAACTGAGGAAGTCATC", "ETS1 binding intensity": 368}, {"sequence": "GCTTCTGAGGAAGTGCGTTTTGAGGGTAGGTGGAGT", "ETS1 binding intensity": 724}, {"sequence": "GGGCCCCCGGAAAGAGCTTTGGCCGCTCGAGCCTGC", "ETS1 binding intensity": 703}, {"sequence": "GAAGTGTGCTCTTCCGGTACCTGCTGTTCGTTGCGC", "ETS1 binding intensity": 11600}, {"sequence": "CTTGGGGTCCCATCTTGCTTTTTTCTTCCGCTTTCC", "ETS1 binding intensity": 448}, {"sequence": "AGACCCGGATATGCGCCGGGGACCCCCAGATCGCGC", "ETS1 binding intensity": 3230}, {"sequence": "TGTTAAAATGTGAGCAGCAAGAAAGGAAATAGTGTT", "ETS1 binding intensity": 461}, {"sequence": "CTGTTTCCGAGTAAAGTAGGGTGTCTGGGTCACATG", "ETS1 binding intensity": 1280}, {"sequence": "CCGCCTCCGGAAGAATTCTCTTCGGGCATGTTGCTG", "ETS1 binding intensity": 1030}, {"sequence": "GCCCCTAAACCGGATGCGGCAGCCACCGTGGACCCC", "ETS1 binding intensity": 11100}, {"sequence": "GCAGGCGAAGGCGGAACTGGCGTGGGCAAACCAACC", "ETS1 binding intensity": 463}, {"sequence": "ACAGAGAAACTACAGCCCTGAGCCTCTTCCTGACAT", "ETS1 binding intensity": 382}, {"sequence": "GCGCCCGGCCCCGCGCACGCACCATTTCCTGGCTTC", "ETS1 binding intensity": 734}, {"sequence": "ATGCTGTAGGTCCACTCCCTGCCACCTGCTTCCTGC", "ETS1 binding intensity": 474}, {"sequence": "CTGTCTTGGTGTTCTGTTCTTATTTTAGTTTCCTGT", "ETS1 binding intensity": 780}, {"sequence": "TTACAATCATTTCCTCTCTGTGCTTTGGTGACAAAT", "ETS1 binding intensity": 7610}, {"sequence": "TACCCTTGTAGGCCCCCCGGCGACGCTTCCTGCTCC", "ETS1 binding intensity": 487}, {"sequence": "TGGGCTTCTCTGTAGGTGTGGCGGGAAGTAGATGAA", "ETS1 binding intensity": 362}, {"sequence": "TTTGATCTTTGGGAAGTGGCCTGTCGTTCTTATCAC", "ETS1 binding intensity": 511}, {"sequence": "TAGAACTTCCTCAGACCACCTCCGCCGTAGTCTGCA", "ETS1 binding intensity": 2800}, {"sequence": "AGCCCTAAACAACAGCTGAACCACTTCCTGTCACTG", "ETS1 binding intensity": 6370}, {"sequence": "GCTGAGGGCTGTCTTCACCTCAGACGGGAAGCTGCT", "ETS1 binding intensity": 399}, {"sequence": "TAGAAGGCAGGGGTCTGAGTTCCGGAGTAGAAGGCA", "ETS1 binding intensity": 812}, {"sequence": "GTGGGCTGTCGTTAGGAGACAGGAAGGAGAATGCCA", "ETS1 binding intensity": 857}, {"sequence": "CATTCATGTAGCTTATAGGCACATCCTGCCTGCCTA", "ETS1 binding intensity": 2700}, {"sequence": "GACAGGAAGTGACCTCAATTTCCCCGGCCAGAGAAA", "ETS1 binding intensity": 12100}, {"sequence": "GGCGGCGGGCTGCAGGCGCGGCCGGACGGGAGTTCG", "ETS1 binding intensity": 327}, {"sequence": "CCCGGCCCAGGAAACTTCAGACTTCACCGAAGCTTC", "ETS1 binding intensity": 524}, {"sequence": "TTTCACTTCCGGCATGTTTTTCACCTACAGGGATAT", "ETS1 binding intensity": 35500}, {"sequence": "ACACCTCAGGAAGTGGCAGAGACTACAACAAGTCAG", "ETS1 binding intensity": 1680}, {"sequence": "CCTCTGAGCTGTGATAACACCACTTCCTCCACTCCA", "ETS1 binding intensity": 1150}, {"sequence": "TCGGAACGGAACGGAGCAGAGTCGTGCGTGGATGAG", "ETS1 binding intensity": 370}, {"sequence": "CCGACAGGATGGGTGAGCTGTCGTGGCCGGTTTAAG", "ETS1 binding intensity": 678}, {"sequence": "AAGGTGGCGGCTCACAGAGGCCGGACGTCCTCCGGG", "ETS1 binding intensity": 469}, {"sequence": "GTCTGAGGTACCTCGCCACGCCCCCGCCCTTCCGGT", "ETS1 binding intensity": 980}, {"sequence": "GTTGCCTTTCTGAGGTGGAGGAGGAAGTGTTGGATT", "ETS1 binding intensity": 576}, {"sequence": "GCCGGGAATGCGAGCTCTCCTGCCGGAAGCTGCCCC", "ETS1 binding intensity": 862}, {"sequence": "GGGGGCAGGAAGCAGTGCAGCTCCTTAACTCACTTC", "ETS1 binding intensity": 1950}, {"sequence": "AACAACAGGATGCTCTCTAGTCTAACAGTGGCAACA", "ETS1 binding intensity": 2640}, {"sequence": "TGGCCATGGACAGCGAAGGCTTCCTCTACTGCCGCT", "ETS1 binding intensity": 406}, {"sequence": "TCAATGACAGGAAGTTTTTAAATCACATACGGCTAA", "ETS1 binding intensity": 2370}, {"sequence": "GTCTTTCACTCCACTTCCGCCCCCACGAAACATACA", "ETS1 binding intensity": 11100}, {"sequence": "GCGCAGAAAGCTGCAGTCCCTCTGCGGAAGGCGCCG", "ETS1 binding intensity": 327}, {"sequence": "AGGCAAACTACAGGAAGATCCTGCCCGAAACTTGGT", "ETS1 binding intensity": 603}, {"sequence": "TCCCCTCTCCCCATCCGCCCGAGACAACAGCCACTC", "ETS1 binding intensity": 1080}, {"sequence": "ACTGCTCAAACCCCAAACGATAGCAGGAAAGGCCTG", "ETS1 binding intensity": 376}, {"sequence": "TGTTTGTTTCCGAAGATTAGCCAGCCTGCAGTAGAG", "ETS1 binding intensity": 562}, {"sequence": "AACAGTACTTCCGGGGCAAGTGAGCGCCTACAAGGC", "ETS1 binding intensity": 30400}, {"sequence": "GTGGGAGCGGAAGCCTGAGCGGCCTACGGCCTCCGG", "ETS1 binding intensity": "1420 ± 98"}, {"sequence": "TTGCCATTCCAGGAAATGAGCTTACGACATTGACTG", "ETS1 binding intensity": 1610}, {"sequence": "ACAAGGAGGAAAAGGAAATGAACCATGAATAGCAAA", "ETS1 binding intensity": 1810}, {"sequence": "AGTTGCTAAGGAAATGACTGCCTGCAGCGCCTGGCC", "ETS1 binding intensity": 610}, {"sequence": "GCGGGCTATCCGGTCCTCGGCTGCAGCGGGCACCAT", "ETS1 binding intensity": 2430}]}]}
